# Measured values taken from the supplement of paper PMC8728848.
# Some of the results follow.
# B1: CCL1 (Coprinopsis cinerea) (protein)
# chain: MDTQAKPPAGRYVIYNRVLSPNGEKLALTYPGYQREALTLTPLHHSANQIWILNNWDATTSSLTPETARNTQVGWGSGNVPIVLPPGNYVWTLASSAGGYIIQDGGKTVYWNAGEAVANTKVSIGGDNGLQARWIFERV
# How the values were obtained:
# Assay in all cases: glycan array binding signal (z-score within array); higher = stronger binding
# Details in all cases: glycan notation: IUPAC condensed, linker removed
# [1] = target: Man(a1-2)Man(a1-3)[Man(a1-2)Man(a1-6)]Man(a1-6)[Man(a1-2)Man(a1-2)Man(a1-3)]Man(b1-4)GlcNAc(b1-4)GlcNAc
# Summary of the method: (§1)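 The binding signal is a Z-score computed within each array. Data were drawn from 3228 arrays in the Consortium for Functional Glycomics database, restricted to those with a known protein sequence. Scores were averaged over arrays of the same protein sequence at different concentrations or buffers, and over linkers, and negative values can be taken as non-binding.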
# [2] = target: Man(a1-2)Man(a1-3)[Man(a1-6)]Man(a1-6)[Man(a1-2)Man(a1-3)]Man(b1-4)GlcNAc(b1-4)GlcNAc
# Summary of the method: as §1
# [3] = target: Man(a1-2)Man(a1-6)[Man(a1-3)]Man(a1-6)[Man(a1-2)Man(a1-2)Man(a1-3)]Man
# Summary of the method: as §1
# [4] = target: Man(a1-2)Man(a1-6)[Man(a1-3)]Man(a1-6)[Man(a1-2)Man(a1-2)Man(a1-3)]Man(b1-4)GlcNAc(b1-4)GlcNAc
# Summary of the method: as §1
# Man(a1-3)[Man(a1-6)]Man = target: Man(a1-3)[Man(a1-6)]Man
# Summary of the method: as §1
# [5] = target: Man(a1-3)[Man(a1-6)]Man(a1-6)[Man(a1-2)Man(a1-3)]Man(b1-4)GlcNAc(b1-4)GlcNAc
# Summary of the method: as §1
# [6] = target: Man(a1-3)[Man(a1-6)]Man(a1-6)[Man(a1-3)]Man
# Summary of the method: as §1
# [7] = target: Man(a1-3)[Man(a1-6)]Man(a1-6)[Man(a1-3)]Man(b1-4)GlcNAc(b1-4)GlcNAc
# Summary of the method: as §1
# [8] = target: Man(a1-3)[Man(a1-6)]Man(b1-4)GlcNAc(b1-4)GlcNAc
# Summary of the method: as §1
# [9] = target: Man(a1-3)[Man(a1-6)]Man(b1-4)GlcNAc(b1-4)[Fuc(a1-6)]GlcNAc
# Summary of the method: as §1
# Man(a1-6)Man = target: Man(a1-6)Man
# Summary of the method: as §1
# Man(b1-4)GlcNAc = target: Man(b1-4)GlcNAc
# Summary of the method: as §1
# Neu5Ac(a2-3)Gal = target: Neu5Ac(a2-3)Gal
# Summary of the method: as §1
# [10] = target: Neu5Ac(a2-3)Gal(b1-3)GalNAc
# Summary of the method: as §1
# [11] = target: Neu5Ac(a2-3)Gal(b1-3)GalNAc(b1-3)Gal(a1-4)Gal(b1-4)Glc
# Summary of the method: as §1
# [12] = target: Neu5Ac(a2-3)Gal(b1-3)GalNAc(b1-4)[Neu5Ac(a2-3)]Gal(b1-4)Glc
# Summary of the method: as §1
# [13] = target: Neu5Ac(a2-3)Gal(b1-3)GalNAc(b1-4)[Neu5Ac(a2-8)Neu5Ac(a2-3)]Gal(b1-4)Glc
# Summary of the method: as §1
# [14] = target: Neu5Ac(a2-3)Gal(b1-3)GalNAc6S
# Summary of the method: as §1
# [15] = target: Neu5Ac(a2-3)Gal(b1-3)GlcNAc
# Summary of the method: as §1
# [16] = target: Neu5Ac(a2-3)Gal(b1-3)GlcNAc(b1-2)Man(a1-3)[GlcNAc(b1-4)][Neu5Ac(a2-3)Gal(b1-3)GlcNAc(b1-2)Man(a1-6)]Man(b1-4)GlcNAc(b1-4)GlcNAc
# Summary of the method: as §1
# [17] = target: Neu5Ac(a2-3)Gal(b1-3)GlcNAc(b1-3)Gal(b1-3)GlcNAc
# Summary of the method: as §1
# [18] = target: Neu5Ac(a2-3)Gal(b1-3)GlcNAc(b1-3)Gal(b1-4)GlcNAc
# Summary of the method: as §1
# [19] = target: Neu5Ac(a2-3)Gal(b1-3)GlcNAc(b1-3)GalNAc
# Summary of the method: as §1
# [20] = target: Neu5Ac(a2-3)Gal(b1-3)GlcNAc(b1-6)GalNAc
# Summary of the method: as §1
# [21] = target: Neu5Ac(a2-3)Gal(b1-3)GlcNAc6S
# Summary of the method: as §1
# [22] = target: Neu5Ac(a2-3)Gal(b1-3)[Fuc(a1-4)]GlcNAc
# Summary of the method: as §1
# [23] = target: Neu5Ac(a2-3)Gal(b1-3)[Fuc(a1-4)]GlcNAc(b1-3)Gal(b1-3)[Fuc(a1-4)]GlcNAc
# Summary of the method: as §1
# [24] = target: Neu5Ac(a2-3)Gal(b1-3)[Fuc(a1-4)]GlcNAc(b1-3)Gal(b1-4)[Fuc(a1-3)]GlcNAc
# Summary of the method: as §1
# [25] = target: Neu5Ac(a2-3)Gal(b1-3)[Neu5Ac(a2-3)Gal(b1-4)]GlcNAc
# Summary of the method: as §1
# [26] = target: Neu5Ac(a2-3)Gal(b1-3)[Neu5Ac(a2-6)]GalNAc
# Summary of the method: as §1
# [27] = target: Neu5Ac(a2-3)Gal(b1-3)[Neu5Ac(a2-6)]GlcNAc(b1-3)[Fuc(a1-3)[Gal(b1-4)]GlcNAc(b1-6)]Gal(b1-4)Glc
# Summary of the method: as §1
# Neu5Ac(a2-3)Gal(b1-4)Glc = target: Neu5Ac(a2-3)Gal(b1-4)Glc
# Summary of the method: as §1
# [28] = target: Neu5Ac(a2-3)Gal(b1-4)GlcNAc
# Summary of the method: as §1
# [29] = target: Neu5Ac(a2-3)Gal(b1-4)GlcNAc(b1-2)Man
# Summary of the method: as §1
# [30] = target: Neu5Ac(a2-3)Gal(b1-4)GlcNAc(b1-2)Man(a1-3)[GlcNAc(b1-2)Man(b1-4)GlcNAc(b1-2)Man(a1-6)]Man(b1-4)GlcNAc(b1-4)GlcNAc
# Summary of the method: as §1
# [31] = target: Neu5Ac(a2-3)Gal(b1-4)GlcNAc(b1-2)Man(a1-3)[Neu5Ac(a2-3)Gal(b1-4)GlcNAc(b1-2)Man(a1-6)]Man(b1-4)GlcNAc(b1-4)[Fuc(a1-6)]GlcNAc
# Summary of the method: as §1
# [32] = target: Neu5Ac(a2-3)Gal(b1-4)GlcNAc(b1-2)Man(a1-3)[Neu5Ac(a2-6)Gal(b1-4)GlcNAc(b1-2)Man(a1-6)]Man(b1-4)GlcNAc(b1-4)GlcNAc
# Summary of the method: as §1
# [33] = target: Neu5Ac(a2-3)Gal(b1-4)GlcNAc(b1-2)[Neu5Ac(a2-3)Gal(b1-4)GlcNAc(b1-6)]Man(a1-6)[Neu5Ac(a2-3)Gal(b1-4)GlcNAc(b1-2)Man(a1-3)]Man(b1-4)GlcNAc(b1-4)GlcNAc
# Summary of the method: as §1
# [34] = target: Neu5Ac(a2-3)Gal(b1-4)GlcNAc(b1-3)Gal
# Summary of the method: as §1
# [35] = target: Neu5Ac(a2-3)Gal(b1-4)GlcNAc(b1-3)Gal(b1-3)GlcNAc
# Summary of the method: as §1
# [36] = target: Neu5Ac(a2-3)Gal(b1-4)GlcNAc(b1-3)Gal(b1-4)GlcNAc
# Summary of the method: as §1
# [37] = target: Neu5Ac(a2-3)Gal(b1-4)GlcNAc(b1-3)Gal(b1-4)GlcNAc(b1-3)Gal(b1-4)GlcNAc
# Summary of the method: as §1
# [38] = target: Neu5Ac(a2-3)Gal(b1-4)GlcNAc(b1-3)Gal(b1-4)[Fuc(a1-3)]GlcNAc
# Summary of the method: as §1
# [39] = target: Neu5Ac(a2-3)Gal(b1-4)GlcNAc(b1-3)GalNAc
# Summary of the method: as §1
# [40] = target: Neu5Ac(a2-3)Gal(b1-4)GlcNAc(b1-3)[Neu5Ac(a2-3)Gal(b1-4)GlcNAc(b1-6)]GalNAc
# Summary of the method: as §1
# [41] = target: Neu5Ac(a2-3)Gal(b1-4)GlcNAc(b1-6)GalNAc
# Summary of the method: as §1
# [42] = target: Neu5Ac(a2-3)Gal(b1-4)GlcNAc(b1-6)[Gal(b1-3)]GalNAc
# Summary of the method: as §1
# [43] = target: Neu5Ac(a2-3)Gal(b1-4)GlcNAc(b1-6)[Neu5Ac(a2-3)Gal(b1-3)]GalNAc
# Summary of the method: as §1
# [44] = target: Neu5Ac(a2-3)Gal(b1-4)GlcNAc6S
# Summary of the method: as §1
# [45] = target: Neu5Ac(a2-3)Gal(b1-4)[Fuc(a1-3)]GlcNAc
# Summary of the method: as §1
# [46] = target: Neu5Ac(a2-3)Gal(b1-4)[Fuc(a1-3)]GlcNAc(b1-3)Gal
# Summary of the method: as §1
# [47] = target: Neu5Ac(a2-3)Gal(b1-4)[Fuc(a1-3)]GlcNAc(b1-3)Gal(b1-4)GlcNAc
# Summary of the method: as §1
# [48] = target: Neu5Ac(a2-3)Gal(b1-4)[Fuc(a1-3)]GlcNAc(b1-3)Gal(b1-4)[Fuc(a1-3)]GlcNAc(b1-3)Gal(b1-4)[Fuc(a1-3)]GlcNAc
# Summary of the method: as §1
# [49] = target: Neu5Ac(a2-3)Gal(b1-4)[Fuc(a1-3)]GlcNAc(b1-3)GalNAc
# Summary of the method: as §1
# [50] = target: Neu5Ac(a2-3)Gal(b1-4)[Fuc(a1-3)]GlcNAc(b1-6)[Gal(b1-3)]GalNAc
# Summary of the method: as §1
# [51] = target: Neu5Ac(a2-3)Gal(b1-4)[Fuc(a1-3)]GlcNAc6S
# Summary of the method: as §1
# [52] = target: Neu5Ac(a2-3)Gal6S(b1-4)GlcNAc
# Summary of the method: as §1
binder,measurement,setting,value
B1,glycan array binding signal (z-score),[1],-0.139
same,glycan array binding signal (z-score),[2],-0.122
same,glycan array binding signal (z-score),[3],-0.122
same,glycan array binding signal (z-score),[4],-0.138
same,glycan array binding signal (z-score),Man(a1-3)[Man(a1-6)]Man,-0.154
same,glycan array binding signal (z-score),[5],-0.134
same,glycan array binding signal (z-score),[6],-0.158
same,glycan array binding signal (z-score),[7],-0.165
same,glycan array binding signal (z-score),[8],-0.125
same,glycan array binding signal (z-score),[9],-0.142
same,glycan array binding signal (z-score),Man(a1-6)Man,-0.133
same,glycan array binding signal (z-score),Man(b1-4)GlcNAc,-0.165
same,glycan array binding signal (z-score),Neu5Ac(a2-3)Gal,-0.152
same,glycan array binding signal (z-score),[10],-0.095
same,glycan array binding signal (z-score),[11],-0.159
same,glycan array binding signal (z-score),[12],-0.132
same,glycan array binding signal (z-score),[13],-0.023
same,glycan array binding signal (z-score),[14],-0.152
same,glycan array binding signal (z-score),[15],-0.117
same,glycan array binding signal (z-score),[16],-0.156
same,glycan array binding signal (z-score),[17],-0.11
same,glycan array binding signal (z-score),[18],-0.122
same,glycan array binding signal (z-score),[19],-0.104
same,glycan array binding signal (z-score),[20],-0.104
same,glycan array binding signal (z-score),[21],-0.144
same,glycan array binding signal (z-score),[22],-0.151
same,glycan array binding signal (z-score),[23],-0.144
same,glycan array binding signal (z-score),[24],-0.082
same,glycan array binding signal (z-score),[25],-0.164
same,glycan array binding signal (z-score),[26],1.63
same,glycan array binding signal (z-score),[27],-0.115
same,glycan array binding signal (z-score),Neu5Ac(a2-3)Gal(b1-4)Glc,-0.121
same,glycan array binding signal (z-score),[28],-0.148
same,glycan array binding signal (z-score),[29],-0.054
same,glycan array binding signal (z-score),[30],-0.124
same,glycan array binding signal (z-score),[31],-0.13
same,glycan array binding signal (z-score),[32],-0.095
same,glycan array binding signal (z-score),[33],-0.131
same,glycan array binding signal (z-score),[34],-0.133
same,glycan array binding signal (z-score),[35],-0.134
same,glycan array binding signal (z-score),[36],-0.154
same,glycan array binding signal (z-score),[37],-0.162
same,glycan array binding signal (z-score),[38],-0.148
same,glycan array binding signal (z-score),[39],-0.146
same,glycan array binding signal (z-score),[40],-0.152
same,glycan array binding signal (z-score),[41],-0.176
same,glycan array binding signal (z-score),[42],-0.136
same,glycan array binding signal (z-score),[43],-0.122
same,glycan array binding signal (z-score),[44],-0.104
same,glycan array binding signal (z-score),[45],1.14
same,glycan array binding signal (z-score),[46],3.29
same,glycan array binding signal (z-score),[47],1.16
same,glycan array binding signal (z-score),[48],1.58
same,glycan array binding signal (z-score),[49],0.072
same,glycan array binding signal (z-score),[50],0.13
same,glycan array binding signal (z-score),[51],1.12
same,glycan array binding signal (z-score),[52],0.634
